# Some of the results follow. These are noisy estimates, calculated here from bound and input reads.
# Biological target: T1, Pho4 (S. cerevisiae) (UniProt P07270)
# T1 sequence: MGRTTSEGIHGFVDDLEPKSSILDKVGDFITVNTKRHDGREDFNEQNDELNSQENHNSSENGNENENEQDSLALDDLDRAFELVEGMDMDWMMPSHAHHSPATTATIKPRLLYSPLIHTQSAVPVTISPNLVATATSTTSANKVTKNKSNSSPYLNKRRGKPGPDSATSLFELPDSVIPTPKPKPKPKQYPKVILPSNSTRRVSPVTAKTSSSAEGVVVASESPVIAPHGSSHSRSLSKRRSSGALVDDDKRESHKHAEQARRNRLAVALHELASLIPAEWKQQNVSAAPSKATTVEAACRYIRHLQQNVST
# Assay: relative binding free energy (BET-seq); higher = weaker binding
# Conditions: reference: library average
row,Sequence,relative binding free energy
1,GGTTCCACGTGCTGGT,0.08 kcal/mol
2,AGATGCACGTGGTCTG,-0.03 kcal/mol
3,GTTATCACGTGGAGAA,0.2 kcal/mol
4,TAGATCACGTGAGCGT,0.16 kcal/mol
5,TAGGTCACGTGAATTA,0.24 kcal/mol
6,TTTTACACGTGGGAAT,0.13 kcal/mol
7,GGGTGCACGTGACATT,0.11 kcal/mol
8,TCGGTCACGTGCGGTG,0.06 kcal/mol
9,CAGGTCACGTGTGGGT,0.25 kcal/mol
10,AATGTCACGTGAGGTA,0.37 kcal/mol
11,GGGGACACGTGTTACG,0.13 kcal/mol
12,TGTGTCACGTGGGGTG,-0.06 kcal/mol
13,TTGGTCACGTGGATGT,0.22 kcal/mol
14,GAGGTCACGTGACTTG,0.36 kcal/mol
15,CGGTGCACGTGCTTGT,-0.11 kcal/mol
16,TTCTACACGTGGTGGT,-0.01 kcal/mol
17,AGTGACACGTGGTTGT,-0.06 kcal/mol
18,TAGGGCACGTGTTTTT,-0.09 kcal/mol
19,TATTACACGTGGTTGG,0.11 kcal/mol
20,GTATGCACGTGGATTT,0.04 kcal/mol
21,TGATACACGTGATGAT,0.15 kcal/mol
22,GTTCGCACGTGTGGCT,0.01 kcal/mol
23,GGAGGCACGTGAGGAA,0.14 kcal/mol
24,TGAAGCACGTGGGTGC,-0.24 kcal/mol
25,GGGGACACGTGTCGCG,0.01 kcal/mol
26,ATGGGCACGTGGGATT,-0.07 kcal/mol

row,Sequence,relative binding free energy
1,TCATGCACGTGGGTGG,-0.11 kcal/mol
2,CGTTACACGTGGCGGG,-0.03 kcal/mol
3,GTGTCCACGTGGTAGT,0.04 kcal/mol
4,TAAAACACGTGTAGGG,0.09 kcal/mol
5,TGCGACACGTGCGTTT,-0.03 kcal/mol
6,CGGGTCACGTGCGCTG,0.1 kcal/mol
7,TTTTTCACGTGACGTA,0.34 kcal/mol
8,CTGTACACGTGTGGTT,0.13 kcal/mol
9,GTTACCACGTGGGCGG,-0.13 kcal/mol
10,AGCTGCACGTGTGGTA,0 kcal/mol
11,GGGGTCACGTGACGCT,0.24 kcal/mol
12,ATCGTCACGTGAGGGT,0.3 kcal/mol
13,AATCTCACGTGGGATG,0.19 kcal/mol
14,TCCATCACGTGTGTGG,0.16 kcal/mol
15,AATTACACGTGGTGCA,0.03 kcal/mol
16,TATCTCACGTGTTGAG,0.19 kcal/mol
17,ATGGGCACGTGTGTCT,-0.24 kcal/mol
18,CGGAACACGTGGGATG,0.03 kcal/mol
19,ATGTTCACGTGGGGAT,0.16 kcal/mol
20,GGGGTCACGTGTGCTA,0.23 kcal/mol
21,CAGCGCACGTGGCGGG,-0.16 kcal/mol
22,TGCGGCACGTGTAGGA,-0.04 kcal/mol
23,TGAAGCACGTGTGCAG,0.02 kcal/mol
24,TGTCCCACGTGTGGTA,-0.07 kcal/mol
25,CGTTACACGTGGGGCG,0.02 kcal/mol
26,TTTGCCACGTGGCTAG,-0.03 kcal/mol

row,Sequence,relative binding free energy
1,ATTACCACGTGTTTGG,-0.08 kcal/mol
2,AGATACACGTGTTTGT,0.01 kcal/mol
3,ATTGGCACGTGGTACT,-0.09 kcal/mol
4,TTCGTCACGTGTATTG,0.12 kcal/mol
5,AGTTTCACGTGTTTCA,0.29 kcal/mol
6,TAACACACGTGAGTGT,0.27 kcal/mol
7,GAGGGCACGTGAGTCA,0.09 kcal/mol
8,TGTCTCACGTGCTTTG,0.09 kcal/mol
9,GGAGTCACGTGCTGGC,0.14 kcal/mol
10,TGTGACACGTGGAACT,0.08 kcal/mol
11,TCTGGCACGTGGTGAT,-0.19 kcal/mol
12,TTGGACACGTGAGTAA,0.25 kcal/mol
13,GGGCGCACGTGTTGTC,0.01 kcal/mol
14,GTAGGCACGTGGTTAA,0.03 kcal/mol
15,GTTGGCACGTGAGAAG,0.2 kcal/mol
16,TTGGCCACGTGAGTGA,0.26 kcal/mol
17,GTTTCCACGTGGTTAT,-0.06 kcal/mol
18,AAATACACGTGGAGTT,0.19 kcal/mol
19,AAAAACACGTGAGGGG,0.23 kcal/mol
20,GTAGACACGTGGGAGA,-0.14 kcal/mol
21,TTTTGCACGTGTGGTA,0.07 kcal/mol
22,TTGGACACGTGGATCG,0.12 kcal/mol
23,TCATTCACGTGTTGAT,0.21 kcal/mol
24,GTAAGCACGTGTTATG,-0.02 kcal/mol
25,TGCTGCACGTGGAGAG,-0.08 kcal/mol
26,GGTGCCACGTGATCTG,0.13 kcal/mol

row,Sequence,relative binding free energy
1,ATCTGCACGTGATTAT,0.19 kcal/mol
2,AATATCACGTGGGAGG,-0.04 kcal/mol
3,CGTTGCACGTGGGTGG,-0.15 kcal/mol
4,CGTTTCACGTGGGTTA,0.11 kcal/mol
5,TTTGTCACGTGTGGGG,0.25 kcal/mol
6,GGGGGCACGTGTGTTG,0.01 kcal/mol
7,TAATACACGTGGGTGC,-0.13 kcal/mol
8,GTGATCACGTGTAGAT,0.16 kcal/mol
9,GTGGGCACGTGGCTGC,-0.21 kcal/mol
10,ACGTCCACGTGGTGTG,-0.05 kcal/mol
11,TGCGGCACGTGCAGTG,-0.18 kcal/mol
12,GTTGCCACGTGCGGAT,0.02 kcal/mol
13,TTTCACACGTGGGTTT,0.08 kcal/mol
14,TCCTGCACGTGGGGGG,-0.09 kcal/mol
15,TAGATCACGTGAGCTG,0.39 kcal/mol
16,CAAGACACGTGGCGGG,0.08 kcal/mol
17,TTTTGCACGTGGATTG,0.06 kcal/mol
18,GTGGTCACGTGTAGTA,0.1 kcal/mol
19,TCAAGCACGTGTTTTA,-0.05 kcal/mol
20,GTTGTCACGTGCGGAT,0.09 kcal/mol
21,CGTGTCACGTGTAGTG,0.06 kcal/mol
22,TTTCACACGTGATATT,0.1 kcal/mol
23,TTCTGCACGTGTGGGG,0.06 kcal/mol
24,TACGTCACGTGGATGT,-0.03 kcal/mol
25,GTTCGCACGTGGGTGC,-0.19 kcal/mol
26,ATGTACACGTGAGTGA,0.2 kcal/mol

row,Sequence,relative binding free energy
1,TTGATCACGTGGGGTA,0.01 kcal/mol
2,GAGGACACGTGGAGTG,0.1 kcal/mol
3,GGTGTCACGTGGATGG,0.14 kcal/mol
4,GCGAGCACGTGAGTGT,0.1 kcal/mol
5,GGGTACACGTGCAGGT,0.06 kcal/mol
6,TGTCTCACGTGGGGCG,0.08 kcal/mol
7,CAGTACACGTGTGGGG,0.05 kcal/mol
8,GAAAGCACGTGAAGGG,0.24 kcal/mol
9,AAAGTCACGTGTGGTT,0.17 kcal/mol
10,GAAAGCACGTGGTGTT,-0.1 kcal/mol
11,TTTGTCACGTGCGGCT,0.02 kcal/mol
12,GAGGCCACGTGGAATG,0.23 kcal/mol
13,ATTCTCACGTGGTGCT,0.16 kcal/mol
14,TATTTCACGTGTTGTG,0.23 kcal/mol
15,TTGCGCACGTGGCTTG,-0.21 kcal/mol
16,TGCGGCACGTGAGGGA,0.14 kcal/mol
17,ATAAGCACGTGGGCGT,-0.2 kcal/mol
18,TATGCCACGTGGGTTT,-0.13 kcal/mol
19,ATGCGCACGTGGAGGA,-0.19 kcal/mol
20,AAGTCCACGTGGGGCT,-0.1 kcal/mol
21,GGTCACACGTGCGGGG,-0.06 kcal/mol
22,TTGAACACGTGTAGGT,0.15 kcal/mol
23,TATTACACGTGCGGGT,0.23 kcal/mol
24,AGGTTCACGTGGTGTA,0.22 kcal/mol
25,GAAGGCACGTGGGTGG,-0.14 kcal/mol
26,GGGGGCACGTGATCGC,0.04 kcal/mol

row,Sequence,relative binding free energy
1,TTGGTCACGTGATCTA,0.22 kcal/mol
2,AGTGACACGTGGATAG,-0.12 kcal/mol
3,TGAAGCACGTGTCGTG,-0.13 kcal/mol
4,AGCTTCACGTGATGAG,0.57 kcal/mol
5,GGTCGCACGTGGGTTA,-0.09 kcal/mol
6,GGCGTCACGTGATAGT,0.18 kcal/mol
7,ATATGCACGTGTCTGT,-0.24 kcal/mol
8,TGGTCCACGTGCGGAG,-0.08 kcal/mol
9,AGTCGCACGTGGATAT,-0.01 kcal/mol
10,TGATTCACGTGCGGCG,0.29 kcal/mol
11,AGTTGCACGTGCGTGT,-0.07 kcal/mol
12,ATGTACACGTGTAGTG,0.1 kcal/mol
13,TATAACACGTGTTGGG,0 kcal/mol
14,TTTAACACGTGGTAGG,-0.06 kcal/mol
15,ATTCTCACGTGTAATT,0.53 kcal/mol
16,GGTGCCACGTGGCAGT,-0.16 kcal/mol
17,TGTAGCACGTGTGCAT,-0.1 kcal/mol
18,TTTCTCACGTGGGGCT,0.17 kcal/mol
19,AAGGGCACGTGACGAG,0.13 kcal/mol
20,CGTGCCACGTGTTGGG,-0.1 kcal/mol
21,TAAGCCACGTGTGGTT,0.01 kcal/mol
22,AGGTGCACGTGAGAAG,0.14 kcal/mol
23,AAAGACACGTGGTGAG,-0.02 kcal/mol
24,ACGCTCACGTGAGGGT,0.47 kcal/mol
25,GTGCGCACGTGGTTGA,-0.14 kcal/mol
26,TATGACACGTGGCGGT,-0.11 kcal/mol

row,Sequence,relative binding free energy
1,GGCTTCACGTGGTGAT,0.2 kcal/mol
2,TGGTTCACGTGCGTAA,0.07 kcal/mol
3,ATTCTCACGTGTTTTG,0.17 kcal/mol
4,TGGGGCACGTGAGGTG,0.19 kcal/mol
5,AAAATCACGTGGGTTT,0.09 kcal/mol
6,TACAACACGTGGGTGG,-0.2 kcal/mol
7,CATTGCACGTGATTGG,0.12 kcal/mol
8,CATTGCACGTGAGTGG,0.26 kcal/mol
9,GAGAACACGTGGGATT,0.15 kcal/mol
10,GGGTTCACGTGCGGAG,0.22 kcal/mol
11,ATTCACACGTGAGGTG,0.31 kcal/mol
12,AATTTCACGTGTTACA,0.24 kcal/mol
13,TCATGCACGTGGTAGT,-0.05 kcal/mol
14,TTTGCCACGTGCTAGG,-0.1 kcal/mol
15,TTGACCACGTGCGGTT,0.08 kcal/mol
16,TGAGTCACGTGAAGCT,0.24 kcal/mol
17,GTGTGCACGTGGGACG,-0.06 kcal/mol
18,AGTGGCACGTGACTAT,0.02 kcal/mol
19,GTTGTCACGTGCTAAT,0.22 kcal/mol
20,TGAAACACGTGAGTAG,0.24 kcal/mol
21,GATGTCACGTGTTGGC,0.22 kcal/mol
22,GTTTGCACGTGTTAAC,0.21 kcal/mol
23,ACGGGCACGTGAGAGT,0.11 kcal/mol
24,CGTGGCACGTGTCTTG,-0.25 kcal/mol
25,AAAGGCACGTGACTGG,-0.06 kcal/mol
26,CTGGTCACGTGGGTGG,0.01 kcal/mol

row,Sequence,relative binding free energy
1,TGCCACACGTGAGGGT,0.32 kcal/mol
2,CGTAGCACGTGGTGCG,-0.21 kcal/mol
3,TCGTGCACGTGGTAAG,-0.09 kcal/mol
4,TGGGGCACGTGGGCCA,-0.31 kcal/mol
5,GGGGCCACGTGTCAGT,0.02 kcal/mol
6,GTGCGCACGTGTCGTG,-0.05 kcal/mol
7,ATTTTCACGTGGTTCT,0.22 kcal/mol
8,AGCTGCACGTGATGTG,0.06 kcal/mol
9,GTGTTCACGTGGTGAA,0.25 kcal/mol
10,GTTTGCACGTGTGGGT,0.21 kcal/mol
11,TTACACACGTGTTAGT,0 kcal/mol
12,GTCGTCACGTGGGGAC,-0.03 kcal/mol
13,AGGTTCACGTGCAGAG,0.17 kcal/mol
14,AGGAACACGTGGTGAT,0.1 kcal/mol
15,GCAGGCACGTGGTTGT,-0.24 kcal/mol
16,AGAGTCACGTGGGGCA,-0.01 kcal/mol
17,AGTGTCACGTGCAGTT,0.03 kcal/mol
18,AAGCGCACGTGGTTTA,-0.14 kcal/mol
19,TTATACACGTGTATAT,0.12 kcal/mol
20,TTGTACACGTGTTTTC,0 kcal/mol
21,TTACTCACGTGGGGCT,-0.02 kcal/mol
22,TATTTCACGTGGGTAG,0.1 kcal/mol
23,AATGACACGTGTTTAT,0.06 kcal/mol
24,CGGTTCACGTGATATG,0.31 kcal/mol
25,GTTAGCACGTGGAAAG,0.06 kcal/mol
26,TAGGCCACGTGGGGAA,-0.1 kcal/mol

row,Sequence,relative binding free energy
1,CTGGGCACGTGTGGAT,0.04 kcal/mol
2,TGGTTCACGTGATGTG,0.38 kcal/mol
3,AATGTCACGTGATATG,0.21 kcal/mol
4,GGGGGCACGTGGTTTC,-0.18 kcal/mol
5,AAGTTCACGTGGACGT,0.33 kcal/mol
6,TCGGGCACGTGCGTAA,-0.02 kcal/mol
7,GGGAACACGTGGTTAT,0.07 kcal/mol
8,CTGGGCACGTGATTTT,0.04 kcal/mol
9,ATTTTCACGTGTCTTG,0.27 kcal/mol
10,TCAGTCACGTGGCGGT,0.08 kcal/mol
11,TGTTTCACGTGGCTTC,0.06 kcal/mol
12,CGTGGCACGTGCCGGG,-0.18 kcal/mol
13,ACATGCACGTGGGGTA,-0.15 kcal/mol
14,CATGGCACGTGTTGTG,-0.12 kcal/mol
15,TGAGTCACGTGAGCGG,0.14 kcal/mol
16,CTTGGCACGTGTTATT,-0.11 kcal/mol
17,GATAACACGTGGGTGT,-0.11 kcal/mol
18,TGTGTCACGTGGGTAG,-0.12 kcal/mol
19,TTACACACGTGGTAGG,0 kcal/mol
20,GTGAACACGTGAGTGT,0.37 kcal/mol
21,TTAGGCACGTGGTTGG,-0.14 kcal/mol
22,GGTCTCACGTGTGGAA,0.39 kcal/mol
